Assay results reported in the supplement of paper PMC9151546.
Most values come without repeats; read them as rough.

Tests used:
CHO-K1 [1] = assay: micronucleus frequency (% of nucleated events); higher = more micronuclei (genotoxic)
CHO-K1 [2] = assay: hypodiploid nuclei frequency (% of nucleated events); higher = more hypodiploid events (aneugenic)
Method: (§1)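 Flow-cytometric in vitro micronucleus assay (Litron MicroFlow) in CHO-K1 cells in 96-well plates, 19 concentrations (4.5-200 µM, n=1 per concentration). Without S9, cells were exposed for 24 h and sampled at 48 h. With Aroclor 1254-induced rat liver S9, cells were exposed for 3-4 h and sampled at 27-28 h. Read-outs are %MN and %hypodiploid nuclei relative to nucleated events, and relative survival as the nuclei-to-bead ratio versus the 1% DMSO vehicle control (x100).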

CHO-K1 [3] = assay: relative survival (nuclei to bead ratio vs DMSO control) (% of vehicle control); higher = more surviving cells
Method: as §1
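Wherever hypodiploid nuclei frequency (% of nucleated events) is given: hypodiploid nuclei gated on a flow cytometer with 488 nm excitation after SYTOX Green staining, cultures at 37 °C, positive controls vinblastine without S9 and cyclophosphamide with S9.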
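Wherever micronucleus frequency (% of nucleated events) is given: cells lysed with nuclei stained by SYTOX Green, then micronucleus-gated events counted against nucleated events by flow cytometry with 488 nm excitation.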
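Wherever relative survival (nuclei to bead ratio vs DMSO control) is given: Lysed-cell nuclei stained with SYTOX Green and counted against counting beads by flow cytometry at 488 nm excitation, with vinblastine (no S9) and cyclophosphamide (plus S9) as positive controls.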

O=P1(N(CCCl)CCCl)NCCCO1 (stereo not drawn) [Cyclophosphamide monohydrate]
Settings	hypodiploid nuclei frequency, CHO-K1 [2] [%]	micronucleus frequency, CHO-K1 [1] [%]	relative survival, CHO-K1 [3]
concentration: 4.5 (µM), S9 metabolic activation: with S9, exposure time: 3-4 hours	0.26	1.42	76.5
concentration: 4.5 (µM), S9 metabolic activation: without S9, exposure time: 24 hours	0.52	1.48	65.9
concentration: 5.63 (µM), S9 metabolic activation: with S9, exposure time: 3-4 hours	0.4	2.82	117
concentration: 5.63 (µM), S9 metabolic activation: without S9, exposure time: 24 hours	0.64	1.42	76.5
concentration: 7.04 (µM), S9 metabolic activation: with S9, exposure time: 3-4 hours	0.16	1.38	89.5
concentration: 7.04 (µM), S9 metabolic activation: without S9, exposure time: 24 hours	0.3	1.12	76
concentration: 8.8 (µM), S9 metabolic activation: with S9, exposure time: 3-4 hours	0.28	1.38	104
concentration: 8.8 (µM), S9 metabolic activation: without S9, exposure time: 24 hours	0.48	0.88	68.9
concentration: 11 (µM), S9 metabolic activation: with S9, exposure time: 3-4 hours	0.18	1.14	90.3
concentration: 11 (µM), S9 metabolic activation: without S9, exposure time: 24 hours	0.72	1.18	65.4
concentration: 13.7 (µM), S9 metabolic activation: with S9, exposure time: 3-4 hours	0.32	1.5	100
concentration: 13.7 (µM), S9 metabolic activation: without S9, exposure time: 24 hours	0.72	0.84	76.2
concentration: 17.2 (µM), S9 metabolic activation: with S9, exposure time: 3-4 hours	0.18	1.04	106
concentration: 17.2 (µM), S9 metabolic activation: without S9, exposure time: 24 hours	0.56	0.94	76.2
concentration: 21.5 (µM), S9 metabolic activation: with S9, exposure time: 3-4 hours	0.4	1.16	103
concentration: 21.5 (µM), S9 metabolic activation: without S9, exposure time: 24 hours	0.54	1.1	104
concentration: 26.8 (µM), S9 metabolic activation: with S9, exposure time: 3-4 hours	0.22	1.1	82.8
concentration: 26.8 (µM), S9 metabolic activation: without S9, exposure time: 24 hours	0.34	1.18	88.9
concentration: 33.6 (µM), S9 metabolic activation: with S9, exposure time: 3-4 hours	0.2	0.72	73.3
concentration: 33.6 (µM), S9 metabolic activation: without S9, exposure time: 24 hours	0.38	1.06	79.1
concentration: 41.9 (µM), S9 metabolic activation: with S9, exposure time: 3-4 hours	0.38	1.3	69.7
concentration: 41.9 (µM), S9 metabolic activation: without S9, exposure time: 24 hours	0.5	1.5	64.1
concentration: 52.4 (µM), S9 metabolic activation: with S9, exposure time: 3-4 hours	0.2	1	81.5
concentration: 52.4 (µM), S9 metabolic activation: without S9, exposure time: 24 hours	0.3	1.2	64.7
concentration: 65.5 (µM), S9 metabolic activation: with S9, exposure time: 3-4 hours	0.26	1.56	83.9
concentration: 65.5 (µM), S9 metabolic activation: without S9, exposure time: 24 hours	0.38	1.2	63.4
concentration: 81.9 (µM), S9 metabolic activation: with S9, exposure time: 3-4 hours	0.26	1.04	79.2
concentration: 81.9 (µM), S9 metabolic activation: without S9, exposure time: 24 hours	0.78	1.76	69.5
concentration: 102 (µM), S9 metabolic activation: with S9, exposure time: 3-4 hours	0.24	1.06	72.1
concentration: 102 (µM), S9 metabolic activation: without S9, exposure time: 24 hours	1	1.76	59.6
concentration: 128 (µM), S9 metabolic activation: with S9, exposure time: 3-4 hours	0.28	0.94	71.1
concentration: 128 (µM), S9 metabolic activation: without S9, exposure time: 24 hours	0.7	1.56	62.5
concentration: 160 (µM), S9 metabolic activation: with S9, exposure time: 3-4 hours	0.12	0.94	79.1
concentration: 160 (µM), S9 metabolic activation: without S9, exposure time: 24 hours	1.24	2	47.3
concentration: 200 (µM), S9 metabolic activation: with S9, exposure time: 3-4 hours	0.28	0.58	57.5
concentration: 200 (µM), S9 metabolic activation: without S9, exposure time: 24 hours	1.08	2.72	60.4
